Target: TGF-β1 (UniProt P01137 part only)
Assay: cell-based or functional assay

TGF-β1, sequence (P01137 279-390 limits assumed): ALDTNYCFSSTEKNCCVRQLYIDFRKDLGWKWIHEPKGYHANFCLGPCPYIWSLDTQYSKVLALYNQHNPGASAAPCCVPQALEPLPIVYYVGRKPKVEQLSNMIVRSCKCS

IC50, TGF-β1 blocking activity in HEK-Blue TGF-β cells (OD620): 45.2 pM
B1: TGFRt15*-TGFRs (soluble TGFR/IL15RαSu-TGFR/TF/IL-15D8N protein complex) (other)
chain 1: IPPHVQKSVNNDMIVTDNNGAVKFPQLCKFCDVRFSTCDNQKSCMSNCSITSICEKPQEVCVAVWRKNDENITLETVCHDPKLPYHDFILEDAASPKCIMKEKKKPGETFFMCSCSSDECNDNIIFSEEYNTSNPDGGGGSGGGGSGGGGSIPPHVQKSVNNDMIVTDNNGAVKFPQLCKFCDVRFSTCDNQKSCMSNCSITSICEKPQEVCVAVWRKNDENITLETVCHDPKLPYHDFILEDAASPKCIMKEKKKPGETFFMCSCSSDECNDNIIFSEEYNTSNPDSGTTNTVAAYNLTWKSTNFKTILEWEPKPVNQVYTVQISTKSGDWKSKCFYTTDTECDLTDEIVKDVKQTYLARVFSYPAGNVESTGSAGEPLYENSPEFTPYLETNLGQPTIQSFEQVGTKVNVTVEDERTLVRRNNTFLSLRDVFGKDLIYTLYYWKSSSSGKKTAKTNTNEFLIDVDKGENYCFSVQAVIPSRTVNRKSTDSPVECMGQEKGEFRE[letters of about 120 residues with changes left out]
chain 2: IPPHVQKSVNNDMIVTDNNGAVKFPQLCKFCDVRFSTCDNQKSCMSNCSITSICEKPQEVCVAVWRKNDENITLETVCHDPKLPYHDFILEDAASPKCIMKEKKKPGETFFMCSCSSDECNDNIIFSEEYNTSNPDGGGGSGGGGSGGGGSIPPHVQKSVNNDMIVTDNNGAVKFPQLCKFCDVRFSTCDNQKSCMSNCSITSICEKPQEVCVAVWRKNDENITLETVCHDPKLPYHDFILEDAASPKCIMKEKKKPGETFFMCSCSSDECNDNIIFSEEYNTSNPDITCPPPMSVEHADIWVKSYSLYSRERYICNSGFKRKAGTSSLTECVLNKATNVAHWTTPSLKCIR

Source: patent US20250195614A1 (IMMUNITYBIO, published 2025)
